# The RNAGym collection of RNA variant scans (doi:10.1093/nar/gkz1192)
# Read counts are not given, so values of variants with three or more changes are uncertain.
# B1: CPEB3 Ribozyme (parent)
# chain: UAACAGGGGGCCACAGCAGAAGCGUUCACGUCGCAGCCCCUGUCAGAUUCUGGUGAAUCUGCGAAUUCUGCUGUAUAUCUC
# Variants of: B1
# Assay: self-cleavage, relative activity (ratio to wild type); higher = more cleavage; in vitro, sequencing
# Procedure, shortened: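 For each CPEB3 ribozyme variant, relative activity is its cleaved/total read fraction divided by the unmutated ribozyme's. Barcoded error-prone PCR libraries were transcribed by T7 RNA polymerase (5 hours, 37°C) and held in DNase I for 15 min before an EDTA stop, with cleavage occurring throughout. Template-switching reverse transcription and Illumina sequencing were used to read the RNAs. A 5-read minimum applied, and results are the mean of three batches.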
row,Variant,self-cleavage
1,UAACAGGGGGCCACAGCAGAAGCGUUCACGGCGCAGCCCCUGUCCGAUUCUGGUGAAUCUGCGAAUUCUGCUGUAUAUCAC [U31G A45C U80A],0.46
2,UAACAGGGGGCCACAGCAGAAGCGUUCACGGCGCAGCCCCUGUCUGAUUCUGGUGAAUCUGCGAAUUCUGCUGUGUAUCUC [U31G A45U A75G],0.37
3,UAACAGGGGGCCACAGCAGAAGCGUUCACGGCGCAGCCCCUGUCUGACUCUGGUGGAUCUGCGAACUCCGCUGUAUAUCAC [U31G A45U U48C A56G U66C U69C U80A],0.08
4,UAACAGGGGGCCACAGCAGAAGCGUUCACGGCGCAGCCCCUGUCAGGUCCUGGUGAAUCUGCGAAUUCUGCUGUAUAUCUC [U31G A47G U49C],0.19
5,UAACAGGGGGCCACAGCAGAAGCGUUCACGGCGCAGCCCCUGUCAGGUUCUGGUGAAUCUGCGAAUUCUGCUGUAUACCUC [U31G A47G U78C],0.48
6,UAACAGGGGGCCACAGCAGAAGCGUUCACGGCGCAGCCCCUGUCAGGUUCUGGUGAAUCUGCGAAUUCUGCUGUAUAGCUC [U31G A47G U78G],0.7
7,UAACAGGGGGCCACAGCAGAAGCGUUCACGGCGCAGCCCCUGUCAGUUUCCGGUGAACCUGCGAAUUCUGCUGUAUAUCCC [U31G A47U U51C U58C U80C],0.11
8,UAACAGGGGGCCACAGCAGAAGCGUUCACGGCGCAGCCCCUGUCAGAUUCUGGUGGGUCCGCGAAUUCUGCUGUAUAUCUC [U31G A56G A57G U60C],0.12
9,UAACAGGGGGCCACAGCAGAAGCGUUCACGGCGCAGCCCCUGUCAGAUUCUGGUGGAUCUGCGUAUUCUGCUGUAUAUCUC [U31G A56G A64U],0.25
10,UAACAGGGGGCCACAGCAGAAGCGUUCACGGCGCAGCCCCUGUCAGAUUCUGGUGUAUCCGCGAAUUCUGCUGUAUAUCUC [U31G A56U U60C],0.38
11,UAACAGGGGGCCACAGCAGAAGCGUUCACGGCGCAGCCCCUGUCAGAUUCUGGUGUAUCUGCGAAUUCUGCUGCAUAUCUC [U31G A56U U74C],0.61
12,UAACAGGGGGCCACAGCAGAAGCGUUCACGGCGCAGCCCCUGUCAGAUUCUGGUGAGUCUGCGAAUUCUGCUAUAUAUCUC [U31G A57G G73A],1.14
13,UAACAGGGGGCCACAGCAGAAGCGUUCACGGGGCAGCCCCCGUCAGAUUCUGGCGAAUCUGCGAACCCUGCUGUAUAUCCC [U31G C32G U41C U54C U66C U67C U80C],0.08
14,UAACAGGGGGCCACAGCAGAAGCGUUCACGGGGCAGCCCCUGUCAGAUUCUGGCGAAUCUGCGAACUAUGCUGUAUAUAUC [U31G C32G U54C U66C C68A C79A],0.17
15,UAACAGGGGGCCACAGCAGAAGCGUUCACGGUGCAGCCCCUGUCAGAUGGUGGUGAACCUGCGAAUUCUGCUGUAUAUCUC [U31G C32U U49G C50G U58C],0.14
16,UAACAGGGGGCCACAGCAGAAGCGUUCACGGCGUAGCCCCUGUCAUAUUCAGGUAUAUCUGCGAAUUCUGCUGUAUAUCUC [U31G C34U G46U U51A G55A A56U],0.04
17,UAACAGGGGGCCACAGCAGAAGCGUUCACGGCGCAGUCCCUGUCUGAUUCUGGUGAAUCUGCGAAUUCUGCAGUAUAUCUC [U31G C37U A45U U72A],0.07

row,Variant,self-cleavage
1,UAACAGGGGGCCACAGCAGAAGCGUUCACGGCGCAGCUCCUGUCUGAUUCUGGUGGUUCUGCUAAUUCUGCUGUAUUUCUC [U31G C38U A45U A56G A57U G63U A77U],0.05
2,UAACAGGGGGCCACAGCAGAAGCGUUCACGGCGCAGCCGCUGCCAGAUUCUGGUGAAUCUGCGAAUUCUGCAGUAUAUCUC [U31G C39G U43C U72A],0.18
3,UAACAGGGGGCCACAGCAGAAGCGUUCACGGCGCAGCCUCUGUCAGAUUCUGGUGAAUCCGCGAAUUCUGCUGUAUAUCUC [U31G C39U U60C],0.13
4,UAACAGGGGGCCACAGCAGAAGCGUUCACGGCGCAGCCCGUGUCAGAUUCUGGUGAGUCUGCGUAUUCUGCUGUAUAUCUC [U31G C40G A57G A64U],0.11
5,UAACAGGGGGCCACAGCAGAAGCGUUCACGGCGCAGCCCUUGUCAGAUUCUGGUGAAUCUGCGAAUUCUGCUGUAUAUCCC [U31G C40U U80C],0.25
6,UAACAGGGGGCCACAGCAGAAGCGUUCACGGCGCAGCCCCUGUUAGAUUCUGGUGAAUCUGCGAAUUCUGCCGUAUAUCUC [U31G C44U U72C],0.07
7,UAACAGGGGGCCACAGCAGAAGCGUUCACGGCGCAGCCCCUAUCAGAUUCUGGCGAGUCUGCGAAUUCUUCCGUAUAUCUC [U31G G42A U54C A57G G70U U72C],0.08
8,UAACAGGGGGCCACAGCAGAAGCGUUCACGGCGCAGCCCCUCUCAGAUUCUGGUGAAUCUGCGAAUUCCGCUGUAUAUCUC [U31G G42C U69C],0.19
9,UAACAGGGGGCCACAGCAGAAGCGUUCACGGCGCAGCCCCUGUCAGAUUCUGUUGAAUCUGCGAAUUCUGCCGUAUAGCUC [U31G G53U U72C U78G],0.85
10,UAACAGGGGGCCACAGCAGAAGCGUUCACGGCGCAGCCCCUGUCAGAUUCUGGUGAAUCUGCACAUUCUGCUGUAUAUCUC [U31G G63A A64C],0.56
11,UAACAGGGGGCCACAGCAGAAGCGUUCACGGCGCAGCCCCUGUCAGAUUCUGGUGAAUCUGCCGAUUCUGCUGUAUAUCUC [U31G G63C A64G],0.21
12,UAACAGGGGGCCACAGCAGAAGCGUUCACGGCGCAGCCCCAGUCAGAUUCCGGUGAAUCUGCGAAUUCCGCUGUAUAUCUC [U31G U41A U51C U69C],0.18
13,UAACAGGGGGCCACAGCAGAAGCGUUCACGGCGCAGCCCCCGUCAGAUUCUGGUGAAUCUGCCAACUCUGCUGUAUAUCUC [U31G U41C G63C U66C],0.22
14,UAACAGGGGGCCACAGCAGAAGCGUUCACGGCGCAGCCCCCGUCAGAUUCUGGUGAAUCUGCGAACUCUGCAGUAUAUCUC [U31G U41C U66C U72A],0.14
15,UAACAGGGGGCCACAGCAGAAGCGUUCACGGCGCAGCCCCUGACAGAUUCUGGAGAAUCUGCGAAUUCUGCUGUAUAUCUC [U31G U43A U54A],0.74
16,UAACAGGGGGCCACAGCAGAAGCGUUCACGGCGCAGCCCCUGACAGAUUCUGGUGAAUCAACGAAUUCUGCUGUAUAUCUC [U31G U43A U60A G61A],0.17
17,UAACAGGGGGCCACAGCAGAAGCGUUCACGGCGCAGCCCCUGACAGAUUCUGGUGAAUCUGCGAAGUCUGCUGUAUAUCUC [U31G U43A U66G],0.18
